Some of the results follow. At the low end of the ranking the order means little.
Molecular target: T1, GST-Rok (full length) (UniProt O34857)
T1 sequence: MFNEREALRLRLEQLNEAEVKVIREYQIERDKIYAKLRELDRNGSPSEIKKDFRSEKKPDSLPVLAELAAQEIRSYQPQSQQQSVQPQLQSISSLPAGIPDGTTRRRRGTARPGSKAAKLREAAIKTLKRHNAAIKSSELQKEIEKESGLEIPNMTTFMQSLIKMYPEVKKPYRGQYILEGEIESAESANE
Test: protein binding microarray;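 further: rank score from −0.5 (least bound) to 0.5 (best bound)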
Conditions: Rok is a gene silencer of Bacillus subtilis; high values mean tight binding; most listed sequences are background and not binding sites; double strand, one strand shown

How did the binding signal turn out when CTGGAATC was run?
Its binding signal is 0.0163 E-score.

How did the binding signal turn out when ATAGGACG was run?
Its binding signal is 0.0518 E-score.

For CCATCGTC, which binding signal is on record?
The binding signal was 0.0123 E-score.

Which binding signal does the source give for TCAAGGGA here?
Its binding signal is -0.141 E-score.

CGTGATCC was tested. Which binding signal did it give?
Its binding signal is -0.0331 E-score.

How did the binding signal turn out when AATCACTG was run?
The binding signal was 0.0314 E-score.

Which binding signal does the source give for AATCCGGG here?
Its binding signal is -0.129 E-score.

TCTCTGCA was tested. Which binding signal did it give?
The binding signal was 0.0197 E-score.

AGCTCAAT was tested. Which binding signal did it give?
The binding signal was 0.107 E-score.

For GAGGGGAC, which binding signal is on record?
Its binding signal is -0.379 E-score.

For AGCCCCTC, which binding signal is on record?
The binding signal was -0.364 E-score.

With CCGGTCCC as the sequence, how does the binding signal read?
Its binding signal is -0.308 E-score.

TTTGCAAA was tested. Which binding signal did it give?
The binding signal was 0.0787 E-score.

GGGCGGAA was tested. Which binding signal did it give?
The binding signal was -0.285 E-score.

With GACATGGA as the sequence, how does the binding signal read?
Its binding signal is 0.0821 E-score.

With GGAGCCAC as the sequence, how does the binding signal read?
The binding signal was -0.133 E-score.

With GCATGAAA as the sequence, how does the binding signal read?
The binding signal was -0.00446 E-score.

With TAAGACAA as the sequence, how does the binding signal read?
The binding signal was -0.0484 E-score.

Which binding signal does the source give for TACTAGAA here?
The binding signal was 0.375 E-score.

How did the binding signal turn out when CCTGTTGA was run?
Its binding signal is -0.00587 E-score.

For GCTCCTAC, which binding signal is on record?
The binding signal was -0.158 E-score.

For TGCATCAA, which binding signal is on record?
Its binding signal is 0.156 E-score.

For CGCGGCAA, which binding signal is on record?
The binding signal was 0.00655 E-score.

AACAGCCA was tested. Which binding signal did it give?
Its binding signal is -0.163 E-score.

CAACCGAC was tested. Which binding signal did it give?
Its binding signal is -0.153 E-score.

For CCGATAGA, which binding signal is on record?
The binding signal was 0.214 E-score.

Which binding signal does the source give for ACAGGCCT here?
Its binding signal is -0.262 E-score.

CCAGTTGA was tested. Which binding signal did it give?
The binding signal was -0.204 E-score.

How did the binding signal turn out when CTAGATAG was run?
Its binding signal is 0.346 E-score.

How did the binding signal turn out when AATCCCTA was run?
Its binding signal is -0.00541 E-score.

With CAGATAAA as the sequence, how does the binding signal read?
The binding signal was 0.233 E-score.

AGAGACAA was tested. Which binding signal did it give?
Its binding signal is -0.0075 E-score.

How did the binding signal turn out when ATGCTCAA was run?
Its binding signal is -0.163 E-score.

With TCTGGTAA as the sequence, how does the binding signal read?
The binding signal was 0.246 E-score.

ATTTCCGA was tested. Which binding signal did it give?
Its binding signal is 0.0761 E-score.

With TACTAGCA as the sequence, how does the binding signal read?
The binding signal was 0.243 E-score.

AGGGTAAC was tested. Which binding signal did it give?
The binding signal was -0.114 E-score.

For AGTCTAAA, which binding signal is on record?
The binding signal was 0.0861 E-score.

How did the binding signal turn out when CAATCTGC was run?
Its binding signal is -0.111 E-score.

How did the binding signal turn out when ACTCGTGA was run?
Its binding signal is -0.0872 E-score.

How did the binding signal turn out when TATGTGCA was run?
Its binding signal is 0.0767 E-score.

For AGCTGATG, which binding signal is on record?
Its binding signal is 0.0192 E-score.

How did the binding signal turn out when AGACTCCA was run?
The binding signal was -0.115 E-score.

GGTTAAAC was tested. Which binding signal did it give?
Its binding signal is 0.00977 E-score.

For ACAGCCCC, which binding signal is on record?
Its binding signal is -0.302 E-score.

With ACAATACC as the sequence, how does the binding signal read?
Its binding signal is 0.13 E-score.

With ATTGAACC as the sequence, how does the binding signal read?
Its binding signal is -0.0443 E-score.

For CTGTTAGC, which binding signal is on record?
The binding signal was 0.245 E-score.

For CCAGCGCC, which binding signal is on record?
Its binding signal is -0.273 E-score.

Which binding signal does the source give for GGCTACCC here?
The binding signal was -0.301 E-score.

For ATAATATC, which binding signal is on record?
Its binding signal is 0.274 E-score.

With CAGGTCGC as the sequence, how does the binding signal read?
The binding signal was -0.189 E-score.

How did the binding signal turn out when AGTGTCGG was run?
Its binding signal is 0.0887 E-score.

With ATTGAACG as the sequence, how does the binding signal read?
Its binding signal is 0.126 E-score.

TGGCGCAA was tested. Which binding signal did it give?
The binding signal was -0.0245 E-score.

How did the binding signal turn out when AGGGATTG was run?
Its binding signal is -0.0956 E-score.

How did the binding signal turn out when AGTTACCC was run?
The binding signal was 0.179 E-score.

For AAAAGTTG, which binding signal is on record?
The binding signal was 0.108 E-score.

AGCGGATG was tested. Which binding signal did it give?
The binding signal was -0.0617 E-score.

For AGTCTCAT, which binding signal is on record?
The binding signal was -0.0786 E-score.

Which binding signal does the source give for CGTGTAAA here?
Its binding signal is 0.0525 E-score.

How did the binding signal turn out when AAGGTCAT was run?
Its binding signal is 0.115 E-score.

How did the binding signal turn out when ATGCGCAC was run?
Its binding signal is -0.0448 E-score.

CGATTAGC was tested. Which binding signal did it give?
Its binding signal is 0.114 E-score.

CAGCCCTA was tested. Which binding signal did it give?
Its binding signal is -0.104 E-score.

With CCTTCTAG as the sequence, how does the binding signal read?
The binding signal was 0.0601 E-score.

For AAGACATT, which binding signal is on record?
Its binding signal is 0.0855 E-score.

With AGCACAGC as the sequence, how does the binding signal read?
Its binding signal is -0.113 E-score.

AATATTGT was tested. Which binding signal did it give?
Its binding signal is 0.34 E-score.

For GCCGACGA, which binding signal is on record?
Its binding signal is -0.251 E-score.

How did the binding signal turn out when GATTTTGA was run?
The binding signal was 0.0717 E-score.

With GGGTACCA as the sequence, how does the binding signal read?
Its binding signal is -0.226 E-score.

ACCATGTA was tested. Which binding signal did it give?
Its binding signal is 0.385 E-score.

With ATGACCTA as the sequence, how does the binding signal read?
The binding signal was 0.00444 E-score.

Which binding signal does the source give for ATCTTTTA here?
Its binding signal is 0.233 E-score.

Which binding signal does the source give for CAGCTGCG here?
Its binding signal is -0.211 E-score.

How did the binding signal turn out when CCTCATAC was run?
Its binding signal is 0.0684 E-score.

With CAAATACA as the sequence, how does the binding signal read?
Its binding signal is 0.23 E-score.

ACGCTTGG was tested. Which binding signal did it give?
The binding signal was -0.243 E-score.

With AGACGGTC as the sequence, how does the binding signal read?
Its binding signal is -0.237 E-score.

CCATTCCA was tested. Which binding signal did it give?
The binding signal was -0.0973 E-score.

CAGAAAAC was tested. Which binding signal did it give?
The binding signal was 0.0354 E-score.

Which binding signal does the source give for CCTGTCAA here?
Its binding signal is 0.0429 E-score.

With AGACAGCT as the sequence, how does the binding signal read?
The binding signal was -0.205 E-score.

With AAGAAACT as the sequence, how does the binding signal read?
The binding signal was 0.185 E-score.

With CAATGGCG as the sequence, how does the binding signal read?
The binding signal was -0.225 E-score.

Source: paper PMC6212790
